The other results are listed elsewhere or left out. These are noisy estimates, calculated here from bound and input reads.
molecular target: T1, Pho4 (S. cerevisiae) (UniProt P07270); experiment: relative binding free energy (BET-seq); higher = weaker binding; details: reference: library average
T1 sequence: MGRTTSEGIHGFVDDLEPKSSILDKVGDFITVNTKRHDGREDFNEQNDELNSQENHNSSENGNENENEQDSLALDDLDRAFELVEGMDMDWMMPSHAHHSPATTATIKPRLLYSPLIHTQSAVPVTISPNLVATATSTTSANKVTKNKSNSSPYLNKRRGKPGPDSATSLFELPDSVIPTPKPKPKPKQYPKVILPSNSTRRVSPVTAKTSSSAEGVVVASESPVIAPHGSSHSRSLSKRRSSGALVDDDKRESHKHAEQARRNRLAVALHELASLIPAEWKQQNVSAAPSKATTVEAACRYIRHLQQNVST

| Sequence | relative binding free energy [kcal/mol] |
| --- | --- |
| CGATACACGTGTGTTT | 0.09 |
| GGTAGCACGTGTTCTG | -0.06 |
| AGGTGCACGTGTCTTG | -0.09 |
| GAGATCACGTGTGATT | 0.35 |
| CGTGTCACGTGCGTGA | -0.05 |
| AAGACCACGTGGTGGT | 0 |
| GAAGTCACGTGTGGGT | 0.21 |
| TGTTACACGTGTACAG | 0.18 |
| AAATTCACGTGAATGT | 0.32 |
| TTTGGCACGTGTATGT | -0.05 |
| ATTGACACGTGGAGCG | 0.19 |
| ATAGGCACGTGTCATG | -0.08 |
| ACTAGCACGTGTTGGG | -0.13 |
| TAGGACACGTGACGGG | 0.12 |
| GGAGGCACGTGTAAGG | -0.02 |
| TTTCGCACGTGCAGGG | -0.08 |
| TCGGTCACGTGGATTT | 0.31 |
| TCAGTCACGTGGTGCT | -0.06 |
| ATGTTCACGTGTCATT | 0.33 |
| ATGTTCACGTGGTTGG | 0.33 |
| TATGGCACGTGGCGGA | -0.22 |
| GCGTTCACGTGTGGTC | 0.35 |
| GAGGTCACGTGCGAGG | 0.01 |

| Sequence | relative binding free energy [kcal/mol] |
| --- | --- |
| TCTGTCACGTGATTGA | 0.26 |
| ATGGACACGTGTTTGG | 0 |
| TTTATCACGTGTCGTG | 0.1 |
| TTGTGCACGTGATTGG | 0.25 |
| TTCAGCACGTGAGGTT | 0.13 |
| AAGATCACGTGGGGTC | -0.03 |
| GTGTGCACGTGTATCG | 0.07 |
| GGTTGCACGTGCATGT | -0.05 |
| GGAATCACGTGACTGT | 0.37 |
| GTTAGCACGTGTGTGT | 0.1 |
| GGGGACACGTGCGTTT | 0.04 |
| CGGTGCACGTGTGTTC | 0.08 |
| TGTCTCACGTGGTCTG | 0.17 |
| TTGATCACGTGGTAAT | 0.23 |
| ATGCGCACGTGGGCGA | -0.2 |
| GTTTGCACGTGTTTAA | 0.05 |
| GTAGACACGTGGGATT | -0.05 |
| CGTTACACGTGTGGAG | 0.11 |
| TGGTACACGTGCTTTA | 0.01 |
| ACATGCACGTGGGCGG | -0.25 |
| TGGTTCACGTGTAGTG | 0.24 |
| GCATTCACGTGTGATT | 0.39 |
| GAGGACACGTGGGATA | -0.06 |

| Sequence | relative binding free energy [kcal/mol] |
| --- | --- |
| AGTCACACGTGTGTGT | -0.06 |
| CAATGCACGTGGAGGT | -0.18 |
| ATTCCCACGTGTGGGG | -0.04 |
| ATGTTCACGTGGCGGC | 0.21 |
| AGGGTCACGTGGTACT | -0.08 |
| ACATGCACGTGTTGTT | -0.13 |
| CGTTGCACGTGGAATT | 0.17 |
| AATTGCACGTGATGGT | 0.12 |
| TCTGTCACGTGGTAGT | 0.05 |
| ATACACACGTGAGGTT | 0.33 |
| GGTGGCACGTGACGCT | 0.06 |
| TCGGTCACGTGGGCAT | -0.02 |
| TTAAGCACGTGAATTT | 0.29 |
| AATTACACGTGTCTGT | 0.05 |
| GGTAGCACGTGTGGGG | 0.05 |
| GTGAGCACGTGAGTAA | 0.17 |
| TGTTGCACGTGGGCCT | -0.1 |
| AGGATCACGTGTGGGT | 0.2 |
| TAGGCCACGTGGCGGG | -0.17 |
| AGGGGCACGTGAGTTG | 0.15 |
| TCATTCACGTGCGTGG | 0.16 |
| CGGCGCACGTGGGGGC | -0.23 |
| ATTATCACGTGAGTGT | 0.4 |

| Sequence | relative binding free energy [kcal/mol] |
| --- | --- |
| CTCGGCACGTGAGGGG | 0.03 |
| GGCTACACGTGTGTGA | 0.16 |
| TTTATCACGTGATGAT | 0.24 |
| GGTTTCACGTGTTATG | 0.35 |
| TGGTTCACGTGTTGCT | 0.21 |
| GGCGCCACGTGTAGTG | -0.01 |
| GAGAGCACGTGGATGT | -0.1 |
| TGGTCCACGTGAGTAT | 0.17 |
| GTGCGCACGTGTGTTG | -0.01 |
| GGTCCCACGTGGGATG | -0.14 |
| TGTTACACGTGAGAGA | 0.24 |
| TCGGACACGTGATTGG | 0.3 |
| GGTAGCACGTGAAAGG | 0.18 |
| GCGGGCACGTGTGTGT | -0.06 |
| TGTGTCACGTGATGCT | 0.28 |
| GAGTTCACGTGCAGTG | 0.25 |
| ATTTGCACGTGAGGTT | 0.28 |
| TAGTTCACGTGGAATG | 0.35 |
| ATAGTCACGTGTGCGG | 0.06 |
| ACGGGCACGTGTTGTA | -0.14 |
| GGTGACACGTGTCTAT | 0.27 |
| TGTTCCACGTGAGGTG | 0.2 |
| TTATGCACGTGGTTTG | -0.01 |

| Sequence | relative binding free energy [kcal/mol] |
| --- | --- |
| TTAGCCACGTGAGTGG | 0.24 |
| TCGTTCACGTGAGGGA | 0.31 |
| AAAGACACGTGGGGCA | -0.04 |
| TTTCTCACGTGTGCAT | 0.21 |
| TGAATCACGTGGGTGG | 0.09 |
| GGGAGCACGTGGCGGT | -0.18 |
| TACGGCACGTGGGATA | -0.07 |
| GTTGGCACGTGAATCT | 0.15 |
| TTGCTCACGTGTTAGA | 0.08 |
| CGGTACACGTGTTTTG | 0 |
| ATTTACACGTGATGTG | 0.22 |
| ACGTTCACGTGGATTT | 0.17 |
| GGTATCACGTGGTAGA | 0.21 |
| TTTGTCACGTGTGAAG | 0.09 |
| ATTGTCACGTGACTGA | 0.19 |
| AAGAGCACGTGTAGTT | -0.07 |
| AGTGGCACGTGGGTGA | -0.21 |
| AGACGCACGTGGGGAA | -0.18 |
| GTCTTCACGTGTAAGG | 0.34 |
| TACTGCACGTGATTGG | 0.28 |
| GGTCTCACGTGTGCTT | 0.19 |
| CCATGCACGTGATGGG | 0.17 |
| TGGCTCACGTGTTATA | 0.31 |

— the BET-seq Pho4 binding data (Le et al. 2018)
